For assay [1], the target named is ERK1 wild-type (extracellular signal-regulated kinase 1), HA-tagged (mouse) (UniProt Q63844). Put plainly: co-IP; lysates of cells overexpressing the tagged ERKs, stimulated with carbachol or PE, with or without EDI; Flag-ERK2 precipitated with anti-Flag on protein A-sepharose and HA-ERK2 blotted, or HA-ERK1 precipitated with anti-HA and Flag-ERK2 blotted; lysis buffer 1% Triton-X-100, 300 mM NaCl, 50 mM Tris pH 7.4, 5 mM EDTA; 2 h, 4 °C.

By UniProt entry, the sequences of proteins in these tests, tags left out.
UniProt Q63844: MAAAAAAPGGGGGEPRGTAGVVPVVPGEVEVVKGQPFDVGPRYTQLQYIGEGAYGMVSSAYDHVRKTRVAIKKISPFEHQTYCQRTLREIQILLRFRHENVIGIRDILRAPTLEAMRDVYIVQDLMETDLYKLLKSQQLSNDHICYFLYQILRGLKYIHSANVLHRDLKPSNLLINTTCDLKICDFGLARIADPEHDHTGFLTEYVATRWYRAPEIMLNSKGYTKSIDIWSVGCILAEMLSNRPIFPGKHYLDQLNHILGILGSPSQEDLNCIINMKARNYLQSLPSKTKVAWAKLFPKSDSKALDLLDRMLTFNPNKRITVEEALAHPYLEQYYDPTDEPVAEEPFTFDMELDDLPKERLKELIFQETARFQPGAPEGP
UniProt P52164: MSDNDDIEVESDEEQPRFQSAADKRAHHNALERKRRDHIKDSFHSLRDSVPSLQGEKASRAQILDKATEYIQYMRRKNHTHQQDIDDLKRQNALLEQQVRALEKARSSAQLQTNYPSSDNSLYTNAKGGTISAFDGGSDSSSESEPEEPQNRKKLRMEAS
UniProt P09416: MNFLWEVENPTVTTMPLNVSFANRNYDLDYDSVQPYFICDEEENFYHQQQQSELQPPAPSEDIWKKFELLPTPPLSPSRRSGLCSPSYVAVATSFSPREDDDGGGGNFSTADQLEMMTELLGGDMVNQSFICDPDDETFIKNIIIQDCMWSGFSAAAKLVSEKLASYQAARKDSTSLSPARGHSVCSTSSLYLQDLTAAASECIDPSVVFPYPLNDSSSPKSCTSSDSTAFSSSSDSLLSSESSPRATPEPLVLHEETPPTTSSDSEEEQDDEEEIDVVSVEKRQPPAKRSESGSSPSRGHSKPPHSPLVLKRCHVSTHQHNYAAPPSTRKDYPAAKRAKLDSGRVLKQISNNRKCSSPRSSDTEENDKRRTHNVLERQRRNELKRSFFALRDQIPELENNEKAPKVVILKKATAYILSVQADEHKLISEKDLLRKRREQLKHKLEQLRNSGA

The target of assay [2] is transcription factor Max (UniProt P52164). Put plainly: proximity ligation; Myc and Max, PE-induced, with or without EDI; cells not told in the text shown.
The target of assay [3] is ERK2 wild-type (extracellular signal-regulated kinase 2), Flag-tagged (mouse) (UniProt P63085). Put plainly: cross-linking; HEK293 cells transfected with Flag-ERK2 and myc-EDI, stimulated with 300 µM carbachol for 10 min; 0.75% PFA, 10 min, RT; SDS-PAGE and western blot, mobility shift of ERK2. On the technique in general: In western blotting, separated proteins are transferred to a membrane and probed.

Assay [4] shares this target. Nature of the assay: condition: only unstimulated cells (without carbachol); cross-linking; HEK293 cells transfected with Flag-ERK2 and myc-EDI, not stimulated; 0.75% PFA, 10 min, RT; SDS-PAGE and western blot.
Assay [5] has as its target T1, ERK2 wild-type (extracellular signal-regulated kinase 2), Flag-tagged (mouse), P63085.
T1 chain: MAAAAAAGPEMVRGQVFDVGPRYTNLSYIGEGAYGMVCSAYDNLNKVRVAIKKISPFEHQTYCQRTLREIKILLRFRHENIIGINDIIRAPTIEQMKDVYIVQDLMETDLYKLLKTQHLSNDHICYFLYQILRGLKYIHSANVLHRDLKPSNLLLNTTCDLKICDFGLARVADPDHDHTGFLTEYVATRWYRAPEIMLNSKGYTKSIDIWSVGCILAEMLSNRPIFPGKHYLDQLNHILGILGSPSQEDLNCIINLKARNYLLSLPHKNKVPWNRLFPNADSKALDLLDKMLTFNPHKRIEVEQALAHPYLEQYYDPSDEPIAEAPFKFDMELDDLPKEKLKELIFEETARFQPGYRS
Nature of the assay: proximity ligation; COS7 cells transfected with HA- and Flag-tagged ERK2, loaded with the JOLU22-penetratin conjugate (30 min, 37 °C, HKR solution), then stimulated with PE. To be noted: remark: other sources report otherwise.

Assay [6] concerns the target T1, ERK2 wild-type (extracellular …). Nature of the assay: proximity ligation; NRCM transduced with adenoviruses for Flag-ERK2, HA-ERK2 and myc-EDI or LacZ; PE 4 µM, 10 min, 37 °C; fixed cells, Duolink with anti-Flag and anti-HA. To be noted: remark: other sources report otherwise.
The target is the same in assay [7]. Put plainly: co-IP; lysates of cells overexpressing the tagged ERKs, stimulated with carbachol or PE, with or without EDI; Flag-ERK2 precipitated with anti-Flag on protein A-sepharose and HA-ERK2 blotted, or HA-ERK1 precipitated with anti-HA and Flag-ERK2 blotted; lysis buffer 1% Triton-X-100, 300 mM NaCl, 50 mM Tris pH 7.4, 5 mM EDTA; 2 h, 4 °C. To be noted: remark: other sources report otherwise.

Results are given in words; binding and its absence hold for the method and conditions named. In cells and extracts the contact can be indirect. Some entries that bind do so weakly or less than the wild type. For some of these results: Sequences can lack the tags named with a protein.

Regarding “ERK2 wild-type (extracellular signal-regulated kinase 2), Flag-tagged (from UniProt P63085 1-358) (enzyme)”, the binding result in assay [1] is listed as “binds”. “transcription factor Myc (from UniProt P09416 1-453)”: in assay [2], the binding result was “binds”.

For the molecule “ERK-dimerization inhibitory peptide (EDI), myc-ERK2^309–357 (from UniProt P63085 309-357)”, the values for the binding entry in assay [3] and in assay [4] were “binds” and “no binding”, respectively.

B1: ERK2 wild-type (extracellular signal-regulated kinase 2), Flag-tagged, P63085 1-358 (enzyme)
chain: T1 chain
For B1, the binding result in assay [5], in assay [6] and in assay [7] was “binds” in each case.

The record behind these values is paper PMC7138859.
